The supplement of paper PMC4967469

Tests used:
Assay in all cases: Viability of human cancer cell lines after 72 h of drug (GDSC screen)
Thapsigargin = compound: C/C=C(/C)C(=O)O[C@H]1C(C)=C2[C@H]([C@@H]1OC(=O)CCCCCCC)[C@@](C)(OC(C)=O)C[C@H](OC(=O)CCC)[C@@]1(O)[C@H]2OC(=O)[C@@]1(C)O [Thapsigargin]; settings: top dose 0.512 µM; top dose inferred
Procedure: (§1)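 Human cancer cell lines in 384-well plates, medium with 10% serum, drug for 72 h over a 256-fold dose range (nine 2-fold or five 4-fold steps up to the top dose). Adherent lines were fixed and stained with the nucleic acid dye Syto60, suspension lines read with resazurin; signal relative to control wells, capped at 0 and 100%. One two-parameter sigmoid per drug and line, fitted in a mixed model over all curves with the slope shared within a line.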

(5Z)-7-Oxozeaenol = compound: COc1cc(O)c2c(c1)/C=C/C[C@H](O)[C@H](O)C(=O)/C=C\C[C@H](C)OC2=O [(5Z)-7-Oxozeaenol]; settings: top dose 10 µM; top dose inferred
Procedure: as §1

MPS-1-IN-1 = compound: COc1cc(N2CCC(O)CC2)ccc1Nc1cc(Nc2ccccc2S(=O)(=O)C(C)C)c2cc[nH]c2n1 [MPS-1-IN-1]; settings: top dose 20 µM; top dose inferred
Procedure: as §1

CP466722 = compound: COc1cc2ncnc(-n3nc(-c4ccccn4)nc3N)c2cc1OC [CP466722]; settings: top dose 16 µM; top dose inferred
Procedure: as §1

Zibotentan = compound: COc1nc(C)cnc1NS(=O)(=O)c1cccnc1-c1ccc(-c2nnco2)cc1 [Zibotentan]; settings: top dose 20 µM; top dose inferred
Procedure: as §1

QL-X-138 = compound: C=CC(=O)Nc1cc(-n2c(=O)ccc3cnc4ccc(-c5cn[nH]c5)cc4c32)ccc1C [QL-X-138]; settings: top dose 10.24 µM; top dose inferred
Procedure: as §1

ABT-869 = compound: Cc1ccc(F)c(NC(=O)Nc2ccc(-c3cccc4[nH]nc(N)c34)cc2)c1 [ABT-869]; settings: top dose 1.024 µM; top dose inferred
Procedure: as §1

CHIR-99021 = compound: Cc1cnc(-c2cnc(NCCNc3ccc(C#N)cn3)nc2-c2ccc(Cl)cc2Cl)[nH]1 [CHIR-99021]
Procedure: as §1

GSK269962A = compound: CCn1c(-c2nonc2N)nc2cnc(Oc3cccc(NC(=O)c4ccc(OCCN5CCOCC5)cc4)c3)cc21 [GSK269962A]; settings: top dose 5 µM; screen: GDSC drug entry 1192; top dose inferred
Procedure: as §1

[1] = top dose 2.56 µM, screen: GDSC drug entry 154
[2] = top dose 10 µM, screen: GDSC drug entry 1241, top dose inferred

Cell Line	AUC (Thapsigargin)	IC50 (Thapsigargin) [µM]	AUC ((5Z)-7-Oxozeaenol)	IC50 ((5Z)-7-Oxozeaenol) [µM]	AUC (MPS-1-IN-1)	IC50 (MPS-1-IN-1) [µM]	AUC (CP466722)	IC50 (CP466722) [µM]	AUC (Zibotentan)	IC50 (Zibotentan) [µM]	AUC (QL-X-138)	IC50 (QL-X-138) [µM]	AUC (ABT-869)	IC50 (ABT-869) [µM]	AUC (CHIR-99021; [1])	IC50 (CHIR-99021; [1]) [µM]	AUC (CHIR-99021; [2])	IC50 (CHIR-99021; [2]) [µM]	AUC (GSK269962A)	IC50 (GSK269962A) [µM]
769-P (kidney, adherent)	0.454	0.0236	0.662	1.85	0.891	> 20	0.768	6.54	0.981	> 20	0.548	0.877	0.97	> 1.02	0.704	0.635	0.862	9.84		
A204 (rhabdomyosarcoma, adherent)	0.307	0.00777	0.414	0.338	0.903	> 20	0.809	11.6	0.973	> 20	0.783	5.7	0.786	0.589	0.916	> 2.56	0.854	> 10	0.712	1.49
BEN (non-small cell lung carcinoma, adherent)	0.409	0.0174	0.953	> 10	0.943	> 20	0.844	14	0.976	> 20	0.777	4.75	0.986	> 1.02	0.986	> 2.56	0.985	> 10	0.862	> 5
BFTC-909 (kidney, adherent)	0.245	0.00603	0.558	0.899	0.977	> 20	0.929	> 16	0.988	> 20	0.917	> 10.2	0.985	> 1.02	0.984	> 2.56	0.953	> 10	0.799	2.34
BICR31 (head and neck, adherent)	0.488	0.0296			0.981	> 20	0.9	> 16	0.988	> 20	0.844	7.48	0.979	> 1.02	0.987	> 2.56				
CAMA-1 (breast, adherent)	0.382	0.0139	0.835	9.02	0.917	> 20	0.83	13.7	0.983	> 20	0.75	4.1	0.975	> 1.02	0.983	> 2.56	0.977	> 10	0.948	> 5

The IC50 comes from the fitted curve, where viability falls to half of the control; where the fit passes the top or lowest dose, that dose stands as a limit. AUC sums up the same curve from the lowest dose to the 256-fold higher top dose: 1 means no effect, lower means more sensitive. The top dose, if marked as inferred, is not printed in the source and was worked back from the curve model. For some of these results: Where an entry number is given, a second screen of the drug exists; the two often differ.
